Some of the results follow.

Drawing on the antibiotic and cytotoxicity screens of Wong et al. (2023), this text covers cytotoxicity call and growth inhibition call for 28 molecules.

One experiment concerns HSkMC. Kind of experiment: cytotoxicity call (relative viability < 0.9). The following applies: 10 µM.
The test system of a further experiment is HepG2. Kind of experiment: cytotoxicity call (relative viability < 0.9). The settings on record: 10 µM.
Another experiment deals with S. aureus RN4220. As to the kind of experiment: growth inhibition call (relative growth <= 0.2). The following applies: 50 µM.

With `COc1ccc(S(=O)(=O)N(C)C[C@@H]2OCCCC[C@H](C)Oc3ccc(NS(=O)(=O)c4cn(C)cn4)cc3C(=O)N([C@@H](C)CO)C[C@@H]2C)cc1`, the cytotoxicity call in the experiment with HSkMC and in the experiment with HepG2 was “inactive” in each case. For the same molecule, the growth inhibition call in the experiment on S. aureus RN4220 was “inactive”.
Consider `Cc1cc(C)nc(NS(=O)(=O)c2ccc(N)cc2)n1`, for which the cytotoxicity call in the experiment with HSkMC and in the experiment on HepG2 was “inactive” each time. Further, the growth inhibition call in the experiment with S. aureus RN4220 is “inactive”.
As to `C[C@H](CO)N1C[C@H](C)[C@@H](CN(C)C(=O)c2cc(-c3ccccc3)on2)OCc2cnnn2CCCC1=O`, the cytotoxicity call with HSkMC and in the experiment on HepG2 was “inactive” each time. Also, the growth inhibition call in the experiment with S. aureus RN4220 is “inactive”.
Take `C=CC(C1=CC(=O)C(OC)=CC1=O)c1ccc(OC)cc1` (centres undefined): the cytotoxicity call in the experiment with HSkMC is “inactive”. In addition, in the experiment on HepG2, the cytotoxicity call was “active”. In the experiment with S. aureus RN4220, the growth inhibition call was “inactive”.
Turning to `COc1cccc(C#Cc2ccc([C@@H]3[C@@H](CO)N4C(=O)CN(S(=O)(=O)c5ccccc5C)C[C@@H]34)cc2)c1`, the cytotoxicity call in the experiment with HSkMC and in the experiment with HepG2 was “inactive” in each case. In the experiment with S. aureus RN4220, the growth inhibition call is “inactive”.
For `NC(C(=O)O)C(O)C(O)C(O)CO` (centres undefined), the cytotoxicity call in the experiment on HSkMC and in the experiment on HepG2 was “inactive” in each case. Moreover, the growth inhibition call in the experiment with S. aureus RN4220 was “inactive”.
Regarding `C=CC(=O)N[C@@H]1c2ccccc2C[C@@H]1O`, the cytotoxicity call with HSkMC and in the experiment with HepG2 was “inactive” in each case. In addition, in the experiment on S. aureus RN4220, the growth inhibition call was “inactive”.
Turning to `O=C(C[C@@H]1CC[C@@H]2[C@H](COC[C@H](O)CN2C(=O)Nc2ccc3c(c2)OCO3)O1)N1CCN(c2ccccc2)CC1`, the cytotoxicity call in the experiment on HSkMC and in the experiment with HepG2 was “inactive” in each case. Also, in the experiment with S. aureus RN4220, the growth inhibition call was “inactive”.
`C[C@@H]1CN([C@H](C)CO)C(=O)c2cc(NC(=O)c3ccncc3)ccc2O[C@H]1CN(C)Cc1ccc(-c2ccccc2)cc1`: in the experiment on HSkMC, the cytotoxicity call was “inactive”. Further, the cytotoxicity call in the experiment with HepG2 was “active”. Besides, the growth inhibition call in the experiment with S. aureus RN4220 was “inactive”.
As for `C[C@@H]1CN([C@@H](C)CO)C(=O)Cc2cc(NS(=O)(=O)c3ccccc3)ccc2O[C@H]1CN(C)S(=O)(=O)c1ccccc1`, the cytotoxicity call in the experiment on HSkMC and with HepG2 was “inactive” each time. For the same molecule, in the experiment on S. aureus RN4220, the growth inhibition call was “inactive”.
Take `Cc1ccc(S(=O)(=O)N(C)C[C@H]2Oc3ncc(C#CC4(O)CCCC4)cc3C(=O)N([C@H](C)CO)C[C@@H]2C)cc1`: the cytotoxicity call in the experiment with HSkMC and in the experiment with HepG2 was “inactive” each time. Also, the growth inhibition call with S. aureus RN4220 was “inactive”.
For `C[C@H](CO)N1C[C@H](C)[C@@H](CN(C)S(C)(=O)=O)Oc2ccc(NC(=O)CCN3CCOCC3)cc2C1=O`, the cytotoxicity call in the experiment with HSkMC and in the experiment on HepG2 was “inactive” throughout. The growth inhibition call in the experiment on S. aureus RN4220 was “inactive”.
On to `COc1ccc(CCNC(=O)[C@@]2(Sc3ccc(C)cc3)CC(=O)N(Cc3ccccc3C(F)(F)F)[C@@H]2c2ccc(CO)cc2I)cc1`, for which the cytotoxicity call in the experiment on HSkMC and with HepG2 was “inactive” in each case. The growth inhibition call in the experiment on S. aureus RN4220 is “inactive”.
Turning to `COc1ccc(NC(=O)N(C)C[C@@H]2OCCCC[C@H](C)Oc3ccc(NC(=O)C4CCCCC4)cc3C(=O)N([C@@H](C)CO)C[C@@H]2C)cc1`, the cytotoxicity call with HSkMC and with HepG2 was “inactive” throughout. Further, the growth inhibition call in the experiment with S. aureus RN4220 is “inactive”.
On to `C[C@@H]1CCCCO[C@@H](CN(C)C(=O)Nc2ccccc2)[C@H](C)CN([C@@H](C)CO)C(=O)c2cc(NC(=O)NC3CCCCC3)ccc2O1`, for which the cytotoxicity call with HSkMC and in the experiment on HepG2 was “inactive” each time. For the same molecule, the growth inhibition call in the experiment with S. aureus RN4220 is “inactive”.
Turning to `CCCCCOc1ccc(-c2cc(-c3ccc(C(=O)N[C@H]4C[C@@H](O)[C@@H](O)NC(=O)[C@H]5[C@@H](O)[C@@H](C)CN5C(=O)[C@H]([C@@H](O)CC(N)=O)NC(=O)[C@H]([C@@H](O)[C@@H](O)c5ccc(O)c(OS(=O)(=O)O)c5)NC(=O)[C@H]5C[C@@H](O)CN5C(=O)[C@H]([C@@H](C)O)NC4=O)cc3)no2)cc1`, the cytotoxicity call with HSkMC and with HepG2 was “inactive” throughout. In addition, the growth inhibition call in the experiment with S. aureus RN4220 was “inactive”.
Take `COc1ccc([Si](C)(C)[C@@H]2[C@@H](CCn3cc([C@H](O)c4ccccc4)nn3)O[C@]3(C(=O)N(Cc4ccc(N5C(=O)c6cccc7cccc5c67)cc4)c4ccccc43)[C@H]2C)cc1`: the cytotoxicity call in the experiment on HSkMC is “inactive”. For the same molecule, the cytotoxicity call in the experiment on HepG2 is “active”. Besides, in the experiment with S. aureus RN4220, the growth inhibition call is “inactive”.
Take `Nc1ccn([C@@H]2O[C@H](CO)[C@@H](O)[C@@H]2O)c(=O)n1`: the cytotoxicity call in the experiment on HSkMC and with HepG2 was “inactive” each time. Also, the growth inhibition call with S. aureus RN4220 is “inactive”.
`Cc1ccsc1[C@@H](O)CN`: the cytotoxicity call in the experiment with HSkMC and in the experiment with HepG2 was “inactive” in each case. Also, the growth inhibition call in the experiment on S. aureus RN4220 is “inactive”.
Turning to `C[C@@H]1CCCCO[C@H](CN(C)C(=O)CCC(F)(F)F)[C@H](C)CN([C@H](C)CO)C(=O)c2cc(NC(=O)C3CCCCC3)ccc2O1`, the cytotoxicity call with HSkMC and in the experiment with HepG2 was “inactive” throughout. Also, the growth inhibition call with S. aureus RN4220 is “inactive”.
Take `Cc1ncc([N+](=O)[O-])n1C`: the cytotoxicity call in the experiment on HSkMC and in the experiment on HepG2 was “inactive” in each case. Besides, the growth inhibition call with S. aureus RN4220 is “inactive”.
Turning to `Cc1noc(C)c1S(=O)(=O)Nc1ccc2c(c1)CC(=O)N([C@H](C)CO)C[C@@H](C)[C@@H](CN(C)Cc1ccncc1)O2`, the cytotoxicity call with HSkMC and in the experiment with HepG2 was “inactive” throughout. The growth inhibition call in the experiment with S. aureus RN4220 is “inactive”.
In the case of `COc1ccc(-c2cnc3c(c2)C(=O)N([C@H](C)CO)C[C@H](C)[C@@H](CN(C)C(=O)Cc2ccccn2)O3)cc1`, the cytotoxicity call in the experiment with HSkMC and in the experiment on HepG2 was “inactive” in each case. In addition, the growth inhibition call in the experiment with S. aureus RN4220 is “inactive”.
Turning to `C[C@H]1CN([C@@H](C)CO)C(=O)c2cccc(NC(=O)C3CCCCC3)c2O[C@@H]1CN(C)S(=O)(=O)c1cn(C)cn1`, the cytotoxicity call in the experiment on HSkMC and with HepG2 was “inactive” each time. Further, the growth inhibition call in the experiment with S. aureus RN4220 is “inactive”.
Regarding `C[C@@H]1CN([C@@H](C)CO)C(=O)c2cc(NC(=O)c3ccncc3)ccc2O[C@@H](C)CCCCO[C@@H]1CN(C)S(=O)(=O)c1ccc(Cl)cc1`, the cytotoxicity call with HSkMC and with HepG2 was “inactive” in each case. For the same molecule, in the experiment with S. aureus RN4220, the growth inhibition call was “inactive”.
As to `C=C1C(=O)O[C@@H]2/C=C(\CO[C@@H]3O[C@H](CO)[C@@H](O)[C@H](O)[C@H]3O)CC/C=C3\C[C@H](OC3=O)[C@@H]12`, the cytotoxicity call in the experiment on HSkMC (human skeletal muscle cells) and with HepG2 was “inactive” throughout. In addition, in the experiment with S. aureus RN4220, the growth inhibition call is “inactive”.
Regarding `Cc1noc(C)c1NC(=O)Nc1ccc2c(c1)CC(=O)N([C@@H](C)CO)C[C@H](C)[C@H](CN(C)S(=O)(=O)c1cccs1)O2`, the cytotoxicity call in the experiment with HSkMC and with HepG2 was “inactive” in each case. Besides, in the experiment with S. aureus RN4220, the growth inhibition call was “inactive”.
In the case of `CCC[C@H](NC(=O)[C@@H]1[C@H]2CCC[C@H]2CN1C(=O)[C@@H](NC(=O)[C@@H](NC(=O)c1cnccn1)C1CCCCC1)C(C)(C)C)C(=O)C(=O)NC1CC1`, the cytotoxicity call in the experiment with HSkMC was “inactive”. Also, the cytotoxicity call in the experiment on HepG2 is “active”. For the same molecule, the growth inhibition call in the experiment on S. aureus RN4220 is “inactive”.
